Assay results from the supplement of paper PMC10338343.
± gives the standard deviation. This is a selection; strong and weak results do not stand in their true shares.

System: MIWI (PIWIL1) piRISC loaded with piRNA #1 (30 nt)
Assay: pre-steady-state target cleavage rate (min^-1); MIWI and MILI are mouse PIWI proteins and EfPiwi is from a freshwater sponge; tags in brackets are library labels; higher = faster piRNA-guided slicing of the target
Conditions: guide: piRNA #1 5'p-UGAGGUAGUAGGUUGUAUAGUAUCCAGAGG; auxiliary factor: 500 nM mouse GTSF1
How it was run: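 Cleave-'n-Seq used a transcribed, DNA-blocked target RNA library at 0.1 nM and active affinity-purified piRISC with one synthetic guide at 1 nM, with or without 500 nM GTSF1 partner protein, in HEPES–potassium acetate buffer at 33 °C for 0–8 or 0–960 min. Uncleaved targets were sequenced and normalised to depth and to weakly complementary targets, and three trials were pooled with k3 capped at 0.0001 min^-1. The pre-steady-state cleavage rate was estimated by a burst-and-steady-state fit.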

| Sequence | pre-steady-state target cleavage rate |
| --- | --- |
| GCUCUGGAUACUAUUCAACCAACUACCUCA | 0.117 ± 0.012 |
| GGAGACCUAUCUAUAGAACCUACUACCACA | 0.193 ± 0.027 |
| GGAGACCUAACUAUAGAUCCUACUACCUCA | 0.165 ± 0.025 |
| GGAGACCAUACUAUAGAACCUACUACCUGA | 0.163 ± 0.038 |
| GGAGUGGAUACAAUACAACCAACUACCUCA | 0.116 ± 0.011 |
| GGAGAGCAUUCUAUACAACCUACUACCUCA | 1.42 ± 0.1 |
| GGAGUGGAUACUAGACAACCUACUACCUCA | 1.61 ± 0.086 |
| GGAGAGGAUACAAUACAACCUUCUACCUCA | 0.476 ± 0.027 |
| GGAGACCAAACUAUACAACGUACUACCUCA | 0.253 ± 0.034 |
| GGAGACCUAUGAUUACAACCUUGAUGGAGA [g10:g17:cont:t1A] | < 0.0001 |
| GGAGAGGAUAGUAUACAACCUACUUCCUCA | 0.0124 ± 0.0038 |
| GGAGACCUAACUAUACAACCUACUACGUGA | 0.356 ± 0.04 |
| GGAGACCAUACUAUACAACCUUCUACCUCA | 0.491 ± 0.031 |
| CCUCUGGAUACUAUACAACCUACUACCCCA | 1.15 ± 0.081 |
| GGAGACCUAAGUUUACAACCUACUACCUCA | 0.00564 ± 0.0037 |
| GGUCUGGAUACUAUACAACCUAGUACCUGA | 0.00324 ± 0.0027 |
| GGAGACCUAUGAUAUCCAACCUACUACCUCA | 0.00339 ± 0.0015 |
| GGAGAGGAUACUUUACAACCUUCUACCUCA | 0.485 ± 0.024 |
| GGAGACGAUACUAUACAACUUACUACCUCA | 0.565 ± 0.022 |
| GGAGACCAUAGUAUACAACCAACUACCUCA | 0.0297 ± 0.006 |

| Sequence | pre-steady-state target cleavage rate |
| --- | --- |
| GGAGACCUAUCUAUACAACCUUCAACCUCA | 0.0104 ± 0.0031 |
| GGAGACCUAUCUAUACAACCUACUACGAGA | 0.297 ± 0.068 |
| CCACUGGAAACUAUACAACCUACUACCUCA | 2.06 ± 0.11 |
| GGAGACCUAUGAUAUGUACCUACCUACCUCA | < 0.0001 |
| GGAGACCAUACUAUACAACCUACAUACCUCA | 1.31 ± 0.11 |
| GGACUGGAUAGUAUACAACCAACUACCUCA | 0.0731 ± 0.0094 |
| GCUCUGGAUACAUUACAACCUACUACCUCA | 1.43 ± 0.1 |
| GCUCUGGAUACUAUACAACCUACAACCUGA | 0.744 ± 0.14 |
| GGUCUGGAUAGUAUACAACGUACUACCUCA | 0.319 ± 0.047 |
| GGAGAGGAUACUAUACUACCUACUAGCUCA | 0.349 ± 0.035 |
| GGAGACCAUACUAUACUACCUACUUCCUCA | 0.154 ± 0.019 |
| GGACUGGAUACAAUACAACGUACUACCUCA | 0.743 ± 0.063 |
| GGAGACCUAUCUAUACAUCCUACUACGUCA | 0.221 ± 0.024 |
| CCUCUGGAUACUAUACAACGUACUACCACA | 0.706 ± 0.059 |
| GGAGUGGAUACUAAUACAACCUACUACCUCA | 1.4 ± 0.1 |
| GGAGACCUAUCUAUACAACCUCACUACCUCA | 0.00372 ± 0.0034 |
| GGAGACCAUACAAUACAUCCUACUACCUCA | 0.4 ± 0.058 |
| CCUCUGGAUAUCUAUACAACCUACUACCUCA | 0.824 ± 0.05 |
| GGAGACCUUACAAUACAACCUACUACCACA | 0.196 ± 0.035 |
